# According to a collection of fitness landscapes (doi:10.1016/j.celrep.2020.107928):
# Whole data set: some 81,000 sequences, median “one-hybrid fitness for binding parS DNA” near -0.17, cut for the highest 2% near 0.51. The list shows a part of the results.
# B1: Caulobacter ParB omega fusion; a variant is named by its letters at X, in order, B8GW30 (parent)
# chain: MESVVVGEPGMSEGRRGLGRGLSALLGEVDAAPAQAPGEQLGGSREAPIEILQRNPDQPRRTFREEDLEDLSNSIREKGVLQPILVRPSPDTAGEYQIVAGERAWRAAQRAGLKTVPIMVRELDDLAVLEIGIIENVQRADLNVLEEALSYKVLMEKFERTQENIAQTIGKSXSHVANXMRLLXLPDEVQSYLVSGELTAXHARAIAAAADPVALAKQIIEGGLSVRETEALARKAPNLSAGKSKGGRPPRVKDTDTQALESDLSSVLGLDVSIDHRGSTGTLTITYATLEQLDDLCNRLTRGI
# Variants of: B1
# Assay: one-hybrid fitness for binding parS DNA (scaled: cognate 1, non-cognate 0); higher = stronger binding
# Details: with parS DNA site
# Summary of the method: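 Fitness is the rescaled log change in variant-to-wild-type read ratio, measured by Illumina sequencing of plasmids before and after bacterial one-hybrid selection. The scale puts cognate at 1 and non-cognate at 0. Selection of Caulobacter ParB libraries, four specificity codons randomised, took place in E. coli USO with a HIS3 reporter, site 19 bp from the promoter, over 48 hours at 37°C on M9-minus-histidine with 0.1 mM IPTG and 5 mM 3-AT.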
row,Variant,one-hybrid fitness for binding parS DNA
1,WHRG,≤ 0.2
2,SVND,≤ 0.2
3,QHKN,≤ 0.2
4,VFKR,≤ 0.2
5,RWMH,≤ 0.2
6,FGHM,≤ 0.2
7,CHYG,≤ 0.2
8,CLDK,≤ 0.2
9,ELPG,≤ 0.2
10,CHRS,≤ 0.2
11,SLRI,≤ 0.2
12,GTWV,≤ 0.2
13,QTAG,≤ 0.2
14,FKYC,≤ 0.2
15,WRPG,≤ 0.2
16,TRTS,≤ 0.2
17,HPNF,≤ 0.2
18,NLNS,≤ 0.2
19,YTSG,≤ 0.2
20,KPEY,≤ 0.2
21,RKWT,0.759
22,HRNW,≤ 0.2
23,TNIS,≤ 0.2
24,PNLI,≤ 0.2

row,Variant,one-hybrid fitness for binding parS DNA
1,GRNC,≤ 0.2
2,IMIS,≤ 0.2
3,WQAS,≤ 0.2
4,PKIN,≤ 0.2
5,TAKR,≤ 0.2
6,CYMG,≤ 0.2
7,AYLM,≤ 0.2
8,ARSD,≤ 0.2
9,RVIR,≤ 0.2
10,TGAE,≤ 0.2
11,GRQN,≤ 0.2
12,IHPF,≤ 0.2
13,IKQF,≤ 0.2
14,HDTR,≤ 0.2
15,QIVA,≤ 0.2
16,RSAP,≤ 0.2
17,AWLE,≤ 0.2
18,HLLC,≤ 0.2
19,PNTW,≤ 0.2
20,PYPA,≤ 0.2
21,RHYR,≤ 0.2
22,IRSK,≤ 0.2
23,DKTH,≤ 0.2
24,SGPA,≤ 0.2

row,Variant,one-hybrid fitness for binding parS DNA
1,PSMT,≤ 0.2
2,AISS,≤ 0.2
3,KTLT,≤ 0.2
4,WIAA,≤ 0.2
5,KTHM,≤ 0.2
6,LQCT,≤ 0.2
7,ELYL,≤ 0.2
8,IQHT,≤ 0.2
9,MQGR,≤ 0.2
10,ANAY,≤ 0.2
11,SKRR,≤ 0.2
12,HGLR,≤ 0.2
13,QSLC,≤ 0.2
14,MGKR,≤ 0.2
15,YNQW,≤ 0.2
16,WVPR,≤ 0.2
17,AKNG,≤ 0.2
18,NPIM,≤ 0.2
19,VPDW,≤ 0.2
20,KSPL,≤ 0.2
21,NVLL,≤ 0.2
22,PSLY,≤ 0.2
23,RAVN,0.388
24,GNDR,≤ 0.2

row,Variant,one-hybrid fitness for binding parS DNA
1,GCSP,≤ 0.2
2,FSKL,≤ 0.2
3,GKHG,≤ 0.2
4,LIMG,≤ 0.2
5,LTPR,≤ 0.2
6,VMVV,≤ 0.2
7,NTPR,≤ 0.2
8,EMPC,≤ 0.2
9,GTWS,≤ 0.2
10,CPVI,≤ 0.2
11,PFDV,≤ 0.2
12,RSRN,0.416
13,SAKY,≤ 0.2
14,PNAC,≤ 0.2
15,RVMY,0.455
16,HDPT,≤ 0.2
17,VDRL,≤ 0.2
18,VGVK,≤ 0.2
19,LHIV,≤ 0.2
20,LQLA,≤ 0.2
21,TIQF,≤ 0.2
22,TDTC,≤ 0.2
23,SAAV,≤ 0.2
24,RNCI,≤ 0.2

row,Variant,one-hybrid fitness for binding parS DNA
1,LEQE,≤ 0.2
2,CVAT,≤ 0.2
3,RPGT,≤ 0.2
4,PPGC,≤ 0.2
5,KRPK,≤ 0.2
6,SRLY,≤ 0.2
7,MVES,≤ 0.2
8,HLYS,≤ 0.2
9,GQFR,≤ 0.2
10,HRTP,≤ 0.2
11,HDWC,≤ 0.2
12,LFKS,≤ 0.2
13,TADN,≤ 0.2
14,TFAW,≤ 0.2
15,VHCK,≤ 0.2
16,ATTP,≤ 0.2
17,LTSW,≤ 0.2
18,KKHL,≤ 0.2
19,MMFG,≤ 0.2
20,EHDM,≤ 0.2
21,QYQM,≤ 0.2
22,RFHY,0.462
23,CVVF,≤ 0.2
24,ALHE,≤ 0.2

row,Variant,one-hybrid fitness for binding parS DNA
1,FPRV,≤ 0.2
2,TKPT,≤ 0.2
3,SKDP,≤ 0.2
4,EESV,≤ 0.2
5,DYSC,≤ 0.2
6,AFLG,≤ 0.2
7,WWLN,≤ 0.2
8,VPDM,≤ 0.2
9,TQPL,≤ 0.2
10,NTPL,≤ 0.2
11,LHCT,≤ 0.2
12,LNRH,≤ 0.2
13,VARH,≤ 0.2
14,PMNL,≤ 0.2
15,GSWL,≤ 0.2
16,NWEG,≤ 0.2
17,NMPV,≤ 0.2
18,MATL,≤ 0.2
19,IDNM,≤ 0.2
20,CPRG,≤ 0.2
21,SVAC,≤ 0.2
22,YALA,≤ 0.2
23,QTDE,≤ 0.2
24,MRHY,≤ 0.2

row,Variant,one-hybrid fitness for binding parS DNA
1,ICGT,≤ 0.2
2,CYTG,≤ 0.2
3,SLNM,≤ 0.2
4,ACNC,≤ 0.2
5,LNSW,≤ 0.2
6,LQVC,≤ 0.2
7,EPQM,≤ 0.2
8,TSWQ,≤ 0.2
9,FKSS,≤ 0.2
10,GVHT,≤ 0.2
11,FCAS,≤ 0.2
12,QNQT,≤ 0.2
13,QQCG,≤ 0.2
14,PESC,≤ 0.2
15,HYFS,≤ 0.2
16,RFKN,0.441
17,HTST,≤ 0.2
18,VDWK,≤ 0.2
19,TIIY,≤ 0.2
20,LVAM,≤ 0.2
21,CVEC,≤ 0.2
22,HPGE,≤ 0.2
23,VPYW,≤ 0.2
24,KRPI,≤ 0.2

row,Variant,one-hybrid fitness for binding parS DNA
1,RATV,≤ 0.2
2,RLWT,0.889
3,VWVR,≤ 0.2
4,FQGT,≤ 0.2
5,VPRM,≤ 0.2
6,LIHN,≤ 0.2
7,KSSC,≤ 0.2
8,RMLQ,0.208
9,GKDF,≤ 0.2
10,RLPG,0.755
11,TAVA,≤ 0.2
12,NHLS,≤ 0.2
13,ILTV,≤ 0.2
14,FPGG,≤ 0.2
15,PHYA,≤ 0.2
16,YNCG,≤ 0.2
17,EHAP,0.214
18,VMTR,≤ 0.2
19,FRHW,≤ 0.2
20,VDSG,≤ 0.2
21,SVHT,≤ 0.2
22,RIDT,0.725
23,SPHD,≤ 0.2
24,VHCS,≤ 0.2

row,Variant,one-hybrid fitness for binding parS DNA
1,NLFQ,≤ 0.2
2,DWHR,≤ 0.2
3,PQEV,≤ 0.2
4,NTLA,≤ 0.2
5,DNYA,≤ 0.2
6,RVHA,0.552
7,TNRR,≤ 0.2
8,RKDE,≤ 0.2
9,LGDG,≤ 0.2
10,TLLA,≤ 0.2
11,TKTE,≤ 0.2
12,PIWC,≤ 0.2
13,HPWV,≤ 0.2
14,TSAK,≤ 0.2
15,IFTL,≤ 0.2
16,ITWS,≤ 0.2
17,QCNQ,≤ 0.2
18,LGQR,≤ 0.2
19,GTRM,≤ 0.2
20,SQVV,≤ 0.2
21,RFFY,0.269
22,DTPT,≤ 0.2
23,NYRA,≤ 0.2
24,PGQG,≤ 0.2

row,Variant,one-hybrid fitness for binding parS DNA
1,DTKT,≤ 0.2
2,MDNL,≤ 0.2
3,KISC,≤ 0.2
4,TNHR,≤ 0.2
5,HMLV,≤ 0.2
6,ETSL,≤ 0.2
7,TLVF,≤ 0.2
8,RMVF,0.259
9,MLRL,≤ 0.2
10,LCSP,≤ 0.2
11,AEKS,≤ 0.2
12,WTNS,≤ 0.2
13,RNCV,≤ 0.2
14,CCKY,≤ 0.2
15,CNHT,≤ 0.2
16,QPYP,≤ 0.2
17,WPPM,≤ 0.2
18,SGWW,≤ 0.2
19,SMRE,≤ 0.2
20,LASD,≤ 0.2
21,ILST,≤ 0.2
22,FYRG,≤ 0.2
23,HDFT,≤ 0.2
24,PFCS,≤ 0.2

row,Variant,one-hybrid fitness for binding parS DNA
1,QQHK,≤ 0.2
2,WTKI,≤ 0.2
3,TRLR,≤ 0.2
4,SFMF,≤ 0.2
5,VKTF,≤ 0.2
6,KVAN,≤ 0.2
7,AIKA,≤ 0.2
8,KAME,≤ 0.2
9,HAVD,≤ 0.2
10,YEKG,≤ 0.2
11,YCHM,≤ 0.2
12,RPIN,≤ 0.2
13,HGVM,≤ 0.2
14,MGGF,≤ 0.2
15,YKLS,≤ 0.2
16,KCWS,≤ 0.2
17,FAPG,≤ 0.2
18,ALYT,≤ 0.2
19,SIAS,≤ 0.2
20,RGHT,0.519
21,RDGG,≤ 0.2
22,VYNC,≤ 0.2
23,SMPD,≤ 0.2
24,LSGH,≤ 0.2

row,Variant,one-hybrid fitness for binding parS DNA
1,HTKG,≤ 0.2
2,RQET,0.719
3,NEPW,≤ 0.2
4,ILTS,≤ 0.2
5,QVQY,≤ 0.2
6,LSNS,≤ 0.2
7,PQYG,≤ 0.2
8,VPPV,≤ 0.2
9,RMLH,0.275
10,VRPF,≤ 0.2
11,QVHI,≤ 0.2
12,PSQM,≤ 0.2
13,REES,≤ 0.2
14,PQIV,≤ 0.2
15,PSSW,≤ 0.2
16,TEPG,≤ 0.2
17,SVTT,≤ 0.2
18,DLSC,≤ 0.2
19,QVGS,≤ 0.2
20,NPLR,≤ 0.2
21,QASM,≤ 0.2
22,LYSM,≤ 0.2
23,PNAI,≤ 0.2
24,FPMG,≤ 0.2

row,Variant,one-hybrid fitness for binding parS DNA
1,YYYG,≤ 0.2
2,SCLF,≤ 0.2
3,AIDF,≤ 0.2
4,QIMY,≤ 0.2
5,SSCW,≤ 0.2
6,GKYF,≤ 0.2
7,ETAD,≤ 0.2
8,HAHQ,≤ 0.2
9,YMDC,≤ 0.2
10,AGSP,≤ 0.2
11,IWPC,≤ 0.2
12,QCYM,≤ 0.2
13,ALWM,≤ 0.2
14,EQNC,≤ 0.2
15,CSKL,≤ 0.2
16,QLMT,≤ 0.2
17,AAAY,≤ 0.2
18,KIFL,≤ 0.2
